In the supplement of paper PMC7826260:
Some of the results follow. One pool of 16,384 single-stranded DNAs met each Rep nickase domain in vitro (1 h at 37 °C, 3 µM enzyme); the outer parts of the 90-letter strands are left off. Numbers give uncut DNA relative to the enzyme-free pool, as log2; the lower, the more was cut; hits are not called. Shares of all reads are compared; where an enzyme cuts many sequences, the uncut ones exceed 0.

tested on: T1, Rep nickase domain of tomato golden mosaic virus; test: uncleaved DNA left, log2 of reads against the no-enzyme library (log2 ratio); higher = less cleavage (more negative = more Rep cleavage of the k-mer); sequences stand for … in CTCGTCCG…ACCGGAGA
T1 sequence (residues 1-124, tag not shown): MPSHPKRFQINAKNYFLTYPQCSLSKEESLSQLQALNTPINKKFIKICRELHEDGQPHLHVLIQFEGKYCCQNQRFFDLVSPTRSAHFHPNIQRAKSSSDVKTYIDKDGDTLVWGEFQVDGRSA
Procedure: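 A pool of 90-nt single-stranded DNAs with seven random bases just before the constant AC of the nick site (name = the seven bases) was cut by 3 µM recombinant His6-SUMO-tagged Rep nickase domain (300 nM DNA, 50 mM HEPES pH 8.0, 50 mM NaCl, 1 mM MnCl2, 1 h, 37 °C, three replicates). Uncut DNA was amplified and sequenced.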

Sequence | uncleaved DNA left (log2)
CGGGCCT | -0.0336
CTGCGCG | 0.0107
CTGACCT | -0.0873
GGTCTCG | 0.0727
CGGGAAA | -0.0927
TTTTAGA | 0.141
GTTTCGA | 0.125
ACTTTTT | -0.1
ACTCTAG | -0.0156
GTAGTCG | 0.0513
GGCGGAG | 0.146
TATAAAT | -0.0125
CGACGGC | -0.033
CGGATTC | -0.0886
GGAGTAA | 0.0797
GCGAGGC | -0.0503
GGAGGCG | 0.0635
TTAGTAA | -0.095
TGCCGTT | 0.119
TCCTTAA | -0.00235

Sequence | uncleaved DNA left (log2)
AAGCTAC | 0.117
ATGGCGA | 0.00802
CTGCTAT | 0.0318
CTTTCTT | -0.241
CATACAG | -0.0198
AGTTACT | -0.0983
TGGCATT | -0.166
AATGCCC | -0.0281
TAAGAGA | 0.0723
AAATGTG | 0.012
GGGCCCT | 0.0665
ATGATCC | -0.00955
CCCCGCT | -0.125
AAAATCA | 0.0879
TGTGTAT | 0.116
GGCCTTA | 0.082
TCTATTA | 0.0968
GTTGCCC | -0.0404
CGAAACT | 0.0233
CCCCGGA | 0.0943
